In the supplement of paper PMC5919970:
Counter-ions that a name gives are not always drawn. The full ranking holds about 2,000 compounds; the median of “fractional viability relative to vehicle” is about 0.91, and the lowest 2% start at about 0.045. The list shows a part of the results.

System: TYKNU
Assay: fractional viability relative to vehicle; TYKNU is a high-grade serous ovarian cancer line; higher = less growth inhibition
Conditions: 72 h
In short: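 TYKNU control cells or lentiCRISPRv2 knockout derivatives were plated at 500 cells per well in duplicate into drug-stamped 384-well plates holding a ~2100-compound library at 2 or 10 μM. Culture was in RPMI 1640 with 10% FBS at 37 °C in 5% CO2, with 72 h of drug treatment. Viability was measured by Cell Titer Glo luminescence, and the averaged duplicate treatment wells were normalised to duplicate control wells at the same plate position.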

[1] = 2uM, genotype: DNM1L knockout (sgDNM1L #1)
[2] = 2uM, genotype: sgCTRLA1 (non-targeting control)
[3] = 10uM, genotype: DNM1L knockout (sgDNM1L #1)
[4] = 10uM, genotype: sgCTRLA1 (non-targeting control)

| Compound | fractional viability [1] | fractional viability [2] | fractional viability [3] | fractional viability [4] |
| --- | --- | --- | --- | --- |
| COc1cc(F)c(F)c(Nc2ccc(I)cc2F)c1NS(=O)(=O)C1(C[C@H](O)CO)CC1 [Refametinib (RDEA119, Bay 86-9766)] | 0.305 | 0.298 | 0.213 | 0.224 |
| C#C[C@]1(O)CC[C@H]2[C@@H]3CCc4cc(O)ccc4[C@H]3CC[C@@]21C [Ethinyl Estradiol] | 0.874 | 1.1 | 0.371 | 0.475 |
| CC#CC(=O)Nc1ccc2ncnc(Nc3cccc(Br)c3)c2c1 | 0.23 | 0.186 | 0.209 | 0.168 |
| O=S(=O)(c1ccccc1)N(CC(F)(F)F)c1ccc(C(O)(C(F)(F)F)C(F)(F)F)cc1 | 0.68 | 0.865 | 0.552 | 0.85 |
| O=C(O)c1ccc(N2C(=O)/C(=C\c3ccc(-c4ccc([N+](=O)[O-])cc4)o3)C=C2c2ccccc2)cc1 | 0.851 | 0.873 | 0.899 | 0.776 |
| CCOC(=O)C1=C(C)NC(C)=C(C(=O)OCC)C1c1ccccc1/C=C/C(=O)OC(C)(C)C [Lacidipine] | 0.904 | 1.1 | 0.624 | 0.858 |
| CCOc1cc(CC(=O)N[C@@H](CC(C)C)c2ccccc2N2CCCCC2)ccc1C(=O)O [Repaglinide] | 1.03 | 1.12 | 0.993 | 1.13 |
| O=C(O)C(Cc1c[nH]c2ccccc12)N1C(=O)c2ccccc2C1=O (stereo unspecified) | 1.1 | 1.16 | 0.798 | 1.14 |
| CCOC(=O)c1ncn2c1CN(C)C(=O)c1cc(F)ccc1-2 [Flumazenil] | 0.917 | 1.15 | 0.901 | 1.04 |
| CNC(=O)c1ccccc1Nc1nc(Nc2ccc(N3CCOCC3)cc2OC)ncc1Cl | 0.85 | 0.837 | 0.292 | 0.206 |
| CC1=C(C(=O)Nc2cc3cn[nH]c3cc2F)C(c2ccc(C(F)(F)F)cc2)CC(=O)N1 (stereo unspecified) | 1.01 | 1.16 | 0.848 | 1.27 |
| Cc1cc(C)c2c(c1)[C@@H](N(Cc1cc(C(F)(F)F)cc(C(F)(F)F)c1)c1nnn(C)n1)CCCN2C[C@H]1CC[C@H](C(=O)O)CC1 | 0.887 | 1.03 | 0.627 | 0.858 |
| CCCCN(Cc1ccc(C(=O)NO)cc1)C(=O)Nc1ccccc1 [Nexturastat A] | 0.754 | 0.703 | 0.438 | 0.484 |
| COC(=O)N[C@H](C(=O)N1CCC[C@H]1c1ncc(-c2ccc(-c3ccc(-c4cnc([C@@H]5CCCN5C(=O)[C@@H](NC(=O)OC)C(C)C)[nH]4)cc3)cc2)[nH]1)C(C)C | 1.04 | 1 | 0.511 | 0.654 |
| CC(C(=O)O)c1cccc(C(=O)c2ccccc2)c1 (stereo unspecified) [Ketoprofen] | 0.869 | 1.09 | 0.953 | 0.982 |
| c1cc(-c2cnn3cc(-c4ccc(N5CCNCC5)cc4)cnc23)c2cccnc2c1 | 0.0431 | 0.069 | 0.0409 | 0.021 |
| NCCCC[C@@H]1NC(=O)[C@@H](Cc2ccccc2)NC(=O)[C@H](CC(=O)O)NC(=O)CNC(=O)[C@H](CCCN=C(N)N)NC1=O [Cyclo (-RGDfK)] | 0.726 | 0.923 | 0.701 | 0.724 |
| COc1cc(C(C)=O)ccc1OCCCN1CCC(c2noc3cc(F)ccc23)CC1 [Iloperidone] | 1.04 | 1.13 | 0.758 | 1.05 |
| CCCC1O[C@@H]2C[C@H]3[C@@H]4CCC5=CC(=O)C=C[C@]5(C)[C@H]4[C@@H](O)C[C@]3(C)[C@]2(C(=O)CO)O1 (stereo partly specified) [Budesonide] | 1.14 | 1.14 | 1.01 | 1.17 |
| CNC(=O)[C@@H](c1ccccc1)N1CCc2cc(OC)c(OC)cc2[C@@H]1CCc1ccc(C(F)(F)F)cc1 [Almorexant HCl] | 1.09 | 1.12 | 0.647 | 1.01 |
| COc1ccc(/C=C\c2cc(OC)c(OC)c(OC)c2)cc1O [Combretastatin A4] | 0.11 | 0.122 | 0.111 | 0.073 |
| C[C@H](Cc1cc2c(c(C(N)=O)c1)N(CCCO)CC2)NCCOc1ccccc1OCC(F)(F)F [Silodosin] | 0.929 | 1.18 | 0.899 | 0.934 |
| CN(C)CCOc1ccc(-c2nc(-c3ccncc3)c(-c3ccc4c(c3)CC/C4=N\O)[nH]2)cc1 | 0.772 | 0.95 | 0.0217 | 0.0137 |
| Cc1cc(Cl)ccc1OCCCC(=O)NO [Droxinostat] | 1.08 | 1.13 | 0.723 | 1.01 |
| O=C(NCCN1CCOCC1)c1ccc(Cl)cc1 | 1.05 | 1.07 | 0.787 | 1.1 |
| Cc1ccc(-n2sc(=O)n(Cc3ccc(F)cc3)c2=O)cc1 | 0.995 | 1.11 | 0.469 | 0.618 |
| C/C(=C\C(=O)Nc1ccccc1C(=O)O)c1ccc2ccccc2c1 | 1.03 | 1.06 | 1 | 1.04 |

| Compound | fractional viability [1] | fractional viability [2] | fractional viability [3] | fractional viability [4] |
| --- | --- | --- | --- | --- |
| O=C(c1ccc(/C=C/c2n[nH]c3ccccc23)cc1)N1CCNCC1 | 0.869 | 0.903 | 0.737 | 0.5 |
| CS(=O)(=O)c1ccc(-c2cnc(N)c(C(=O)Nc3ccccc3)n2)cc1 | 0.677 | 0.789 | 0.333 | 0.272 |
| COc1c(C)c2c(c(O)c1C/C=C(\C)CCC(=O)O)C(=O)OC2 [Mycophenolic acid] | 0.407 | 0.461 | 0.258 | 0.232 |
| O=C(Oc1ccccc1C(=O)O)c1ccccc1O [Sasapyrine] | 0.879 | 0.984 | 0.773 | 1.21 |
| C[C@H]1O[C@@H](n2cc(F)c(=O)[nH]c2=O)[C@H](O)[C@@H]1O [Doxifluridine] | 1.11 | 1.13 | 0.893 | 1.06 |
| CC(C)(C)c1nc(-c2cccc(NS(=O)(=O)c3c(F)cccc3F)c2F)c(-c2ccnc(N)n2)s1 | 0.452 | 0.476 | 0.404 | 0.565 |
| CC1(C)CC[C@]2(C(=O)O)CC[C@]3(C)C(=CC[C@@H]4[C@@]5(C)CC[C@H](O)C(C)(C)[C@@H]5CC[C@]43C)[C@@H]2C1 [Oleanolic Acid] | 0.911 | 1.06 | 0.804 | 0.985 |
| O=C(O)CCCCC(CCSCc1ccccc1)SCc1ccccc1 (stereo unspecified) | 1.07 | 1.19 | 0.942 | 1.07 |
| O=c1c(-c2ccc(O)cc2)coc2cc(O)ccc12 [Daidzein] | 0.874 | 1.07 | 0.676 | 0.929 |
| COc1cccc(Nc2c(C(N)=O)cnc3c(C)cc(S(=O)(=O)c4cccc(C(=O)N(C)C)c4)cc23)c1 | 0.711 | 0.988 | 0.585 | 0.958 |
| Nc1c(CC(=O)O)cccc1C(=O)c1ccc(Br)cc1 [Bromfenac Sodium] | 0.888 | 1.1 | 0.801 | 1.05 |
| CC1(C)O[C@@H]2C[C@H]3[C@@H]4CCC5=CC(=O)CC[C@]5(C)[C@@]4(F)[C@@H](O)C[C@]3(C)[C@]2(C(=O)CCl)O1 [Halcinonide] | 1.29 | 1.16 | 0.807 | 1.04 |
| C[C@]12C=CC(=O)C=C1CC[C@H]1[C@@H]3C[C@@H](O)[C@](O)(C(=O)CO)[C@@]3(C)C[C@H](O)[C@@]12F [Triamcinolone] | 1.2 | 1.09 | 1.16 | 1.07 |
| N#Cc1ccc(COC[C@H]2O[C@@H](n3c(NCc4ccc(Cl)c(Cl)c4)nc4c(N)ncnc43)[C@H](O)[C@@H]2O)cc1 | 0.566 | 0.64 | 0.194 | 0.109 |
| CCN(CC)C(=O)/C(C#N)=C/c1cc(O)c(O)c([N+](=O)[O-])c1 [Entacapone] | 1.07 | 1.06 | 1.25 | 1.25 |
| C[C@@H]1O[C@@H](OC[C@H]2O[C@@H](Oc3c(-c4ccc(OCCO)c(OCCO)c4)oc4cc(OCCO)cc(O)c4c3=O)[C@H](O)[C@@H](O)[C@@H]2O)[C@H](O)[C@H](O)[C@H]1O [Troxerutin] | 1.01 | 1.05 | 1.11 | 1.12 |
| Cn1nnc(-c2ccc3c(c2)[nH]c2nc(Cc4ccccc4)nc(NC4CCC(N)CC4)c23)n1 (stereo unspecified) | 0.533 | 0.384 | 0.908 | 0.842 |
| C[C@@H](O)[C@H]1C(=O)N2C(C(=O)O)=C(S[C@@H]3CN[C@H](C(=O)N(C)C)C3)[C@H](C)[C@H]12 [Meropenem] | 1.05 | 1.18 | 0.984 | 1.03 |
| CC(=O)O[C@H]1C[C@@H]2CC[C@@H]3[C@H](CC[C@@]4(C)[C@H]3C[C@H]([N+]3(C)CCCCC3)[C@@H]4OC(C)=O)[C@@]2(C)C[C@@H]1N1CCCCC1 [Vecuronium Bromide] | 0.904 | 1.14 | 1.06 | 1.22 |
| CN(C)Cc1cccc(N=C(c2ccccc2)c2c(O)[nH]c3cc(C(=O)N(C)C)ccc23)c1 | 1.01 | 0.843 | 0.588 | 0.574 |
| OC(c1cc(C(F)(F)F)nc2c(C(F)(F)F)cccc12)C1CCCCN1 (stereo unspecified) [Mefloquine HCl] | 0.689 | 0.956 | 0.0537 | 0.0619 |
| COc1ccc2c(c1)c(CC(=O)N1CCOCC1)c(C)n2C(=O)c1ccc(Cl)cc1 | 1.12 | 1.17 | 0.737 | 1.05 |
| Cc1coc2c1C(=O)C(=O)c1c-2ccc2c1CCCC2(C)C [Tanshinone IIA] | 0.482 | 0.551 | 0.196 | 0.163 |
| CCc1c(O)cc(O)c(C(=O)c2ccc(OCCN3CCOCC3)c(OC)c2)c1CC(=O)N(CCOC)CCOC | 0.368 | 0.443 | 0.232 | 0.202 |
| CNCCCC12CCC(c3ccccc31)c1ccccc12 [Maprotiline HCl] | 0.982 | 1.09 | 0.652 | 0.905 |
| CC[C@H]1OC(=O)C[C@@H](O)[C@H](C)[C@@H](O[C@@H]2O[C@H](C)[C@@H](O)[C@H](N(C)C)[C@H]2O)[C@@H](CCN2C[C@H](C)C[C@H](C)C2)C[C@@H](C)C(=O)/C=C/C(C)=C/[C@@H]1CO[C@@H]1O[C@H](C)[C@@H](O)[C@@H](OC)[C@H]1OC [Tilmicosin] | 2.22 | 1.13 | 1.49 | 1.11 |
| CC(=O)N[C@@H](CS)C(=O)O [Acetylcysteine] | 0.998 | 1.15 | 1 | 1.01 |
